# Measured values published in the supplement of paper PMC10037445.
# The full ranking holds about 2,900 compounds; the median of “NF-kB SEAP reporter activity, fold change vs agonist alone” is about 0.99, and the highest 2% start at about 2.6. Some of the results follow.
# What was measured:
# RAW-Dual [1] = assay: NF-kB SEAP reporter activity, fold change vs agonist alone; higher = enhanced NF-kB activity; conditions: library stock concentration (final ~1000-fold dilution): 10 mM
# Method in brief: (§1)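 After 50 nL of library stock was delivered by pin tool to RAW-Dual macrophages (50,000 cells/well, DMEM, 384-well plates), a PRR agonist was added 1 h later and the plates were kept at 37 °C, 5% CO2. Twenty hours later, IRF was read from supernatant by QuantiLuc luminescence and NF-κB by QuantiBlue absorbance at 620 nm. Reporter activity is stated as fold change over agonist-alone wells. Wells with IncuCyte confluency under 70% of agonist controls in both mask sets were counted as cytotoxic.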
# RAW-Dual [2] = assay: NF-kB SEAP reporter activity, fold change vs agonist alone; cytotoxicity flag (confluency mask): not cytotoxic; higher = enhanced NF-kB activity
# Method in brief: as §1
# RAW-Dual [3] = assay: NF-kB SEAP reporter activity, fold change vs agonist alone; cytotoxicity flag (confluency mask): cytotoxic (confluency <70% of control); higher = enhanced NF-kB activity
# Method in brief: as §1
# [4] = cytotoxicity flag (confluency mask): not cytotoxic, agonist: Imiquimod (TLR7) […]
# [5] = cytotoxicity flag (confluency mask): not cytotoxic, agonist: MPLA (TLR4) […]
# [6] = agonist: ODN 1826 (TLR9) 0.5 ug/mL
# [7] = agonist: Pam2CSK4 (TLR2/6) 0.1 ug/mL
# [8] = agonist: Pam3CSK4 (TLR2/1) 0.1 ug/mL
# [9] = cytotoxicity flag (confluency mask): cytotoxic (confluency <70% of control), agonist: Imiquimod (TLR7) […]
# [10] = cytotoxicity flag (confluency mask): cytotoxic (confluency <70% of control), agonist: MPLA (TLR4) […]
smiles,measurement,setting,value
CNc1ccc([N+](=O)[O-])cc1-n1cnc(-c2ccc(C(F)(F)F)cc2)c1,NF-kB SEAP reporter activity,RAW-Dual [1]; [4],1.24
same,NF-kB SEAP reporter activity,RAW-Dual [1]; [5],2.01
CNc1ccc([N+](=O)[O-])cc1-n1cnc(-c2ccc(C(F)(F)F)cc2)c1 (library stock concentration (final ~1000-fold dilution): 10 mM),NF-kB SEAP reporter activity,RAW-Dual [2]; agonist: LPS (TLR4) 0.1 ug/mL,4.5
same,NF-kB SEAP reporter activity,RAW-Dual [2]; [6],1.91
same,NF-kB SEAP reporter activity,RAW-Dual [2]; [7],0.926
same,NF-kB SEAP reporter activity,RAW-Dual [2]; [8],1.08
Cl.O=C(NC1CCNCC1)c1n[nH]cc1NC(=O)c1c(Cl)cccc1Cl,NF-kB SEAP reporter activity,RAW-Dual [1]; [9],0.646
same,NF-kB SEAP reporter activity,RAW-Dual [1]; [10],1.19
Cl.O=C(NC1CCNCC1)c1n[nH]cc1NC(=O)c1c(Cl)cccc1Cl (library stock concentration (final ~1000-fold dilution): 10 mM),NF-kB SEAP reporter activity,RAW-Dual [3]; agonist: LPS (TLR4) 0.1 ug/mL,1.2
same,NF-kB SEAP reporter activity,RAW-Dual [3]; [6],1.96
same,NF-kB SEAP reporter activity,RAW-Dual [3]; [7],0.731
same,NF-kB SEAP reporter activity,RAW-Dual [3]; [8],0.751
Cc1[nH]c(/C=C2\C(=O)Nc3ccc(S(=O)(=O)N(C)c4cccc(Cl)c4)cc32)c(C)c1C(=O)N1CCN(C)CC1,NF-kB SEAP reporter activity,RAW-Dual [1]; [4],1.01
same,NF-kB SEAP reporter activity,RAW-Dual [1]; [5],0.929
Cc1[nH]c(/C=C2\C(=O)Nc3ccc(S(=O)(=O)N(C)c4cccc(Cl)c4)cc32)c(C)c1C(=O)N1CCN(C)CC1 (library stock concentration (final ~1000-fold dilution): 10 mM),NF-kB SEAP reporter activity,RAW-Dual [2]; agonist: LPS (TLR4) 0.1 ug/mL,1.08
same,NF-kB SEAP reporter activity,RAW-Dual [2]; [6],0.594
same,NF-kB SEAP reporter activity,RAW-Dual [2]; [7],0.796
same,NF-kB SEAP reporter activity,RAW-Dual [2]; [8],0.591
CCCCCCc1ccc(O)cc1O (library stock concentration (final ~1000-fold dilution): 10 mM),NF-kB SEAP reporter activity,RAW-Dual [2]; agonist: LPS (TLR4) 0.1 ug/mL,0.991
same,NF-kB SEAP reporter activity,RAW-Dual [2]; [6],0.654
same,NF-kB SEAP reporter activity,RAW-Dual [2]; [7],0.877
same,NF-kB SEAP reporter activity,RAW-Dual [2]; [8],0.866
CCCCCCc1ccc(O)cc1O,NF-kB SEAP reporter activity,RAW-Dual [1]; [4],1.11
same,NF-kB SEAP reporter activity,RAW-Dual [1]; [5],0.77
CN(C)Cc1ccc(-c2nc3cccc4c3n2CCNC4=O)cc1,NF-kB SEAP reporter activity,RAW-Dual [1]; [4],1.12
same,NF-kB SEAP reporter activity,RAW-Dual [1]; [5],0.857
CN(C)Cc1ccc(-c2nc3cccc4c3n2CCNC4=O)cc1 (library stock concentration (final ~1000-fold dilution): 10 mM),NF-kB SEAP reporter activity,RAW-Dual [2]; agonist: LPS (TLR4) 0.1 ug/mL,0.831
same,NF-kB SEAP reporter activity,RAW-Dual [2]; [6],1.15
same,NF-kB SEAP reporter activity,RAW-Dual [2]; [7],1.28
same,NF-kB SEAP reporter activity,RAW-Dual [2]; [8],1.1
CC1(C)NC(=O)N(c2ccc([N+](=O)[O-])c(C(F)(F)F)c2)C1=O (library stock concentration (final ~1000-fold dilution): 10 mM),NF-kB SEAP reporter activity,RAW-Dual [2]; agonist: LPS (TLR4) 0.1 ug/mL,0.916
same,NF-kB SEAP reporter activity,RAW-Dual [2]; [6],1.05
same,NF-kB SEAP reporter activity,RAW-Dual [2]; [7],0.946
same,NF-kB SEAP reporter activity,RAW-Dual [2]; [8],1.17
CC1(C)NC(=O)N(c2ccc([N+](=O)[O-])c(C(F)(F)F)c2)C1=O,NF-kB SEAP reporter activity,RAW-Dual [1]; [5],1.05
COc1ccc(C(=O)C2CCN(CC(=O)N(Cc3nc4c(c(=O)[nH]3)COCC4)CC3CC3)CC2)cc1,NF-kB SEAP reporter activity,RAW-Dual [1]; [4],1.02
same,NF-kB SEAP reporter activity,RAW-Dual [1]; [5],1.31
COc1ccc(C(=O)C2CCN(CC(=O)N(Cc3nc4c(c(=O)[nH]3)COCC4)CC3CC3)CC2)cc1 (library stock concentration (final ~1000-fold dilution): 10 mM),NF-kB SEAP reporter activity,RAW-Dual [2]; agonist: LPS (TLR4) 0.1 ug/mL,1.3
same,NF-kB SEAP reporter activity,RAW-Dual [2]; [6],1.32
same,NF-kB SEAP reporter activity,RAW-Dual [2]; [7],1.09
same,NF-kB SEAP reporter activity,RAW-Dual [2]; [8],1.88
CCCCc1nc(C)c(CC(=S)N(C)C)c(=O)n1Cc1ccc(-c2ccccc2-c2nnn[nH]2)cc1 (library stock concentration (final ~1000-fold dilution): 10 mM),NF-kB SEAP reporter activity,RAW-Dual [2]; agonist: LPS (TLR4) 0.1 ug/mL,1.14
same,NF-kB SEAP reporter activity,RAW-Dual [2]; [6],1
same,NF-kB SEAP reporter activity,RAW-Dual [2]; [7],0.982
same,NF-kB SEAP reporter activity,RAW-Dual [2]; [8],0.919
CCCCc1nc(C)c(CC(=S)N(C)C)c(=O)n1Cc1ccc(-c2ccccc2-c2nnn[nH]2)cc1,NF-kB SEAP reporter activity,RAW-Dual [1]; [5],1.01
COc1ccc(CN2CCN(C(c3ccc(F)cc3)c3ccc(F)cc3)CC2)c(OC)c1OC.Cl.Cl (library stock concentration (final ~1000-fold dilution): 10 mM),NF-kB SEAP reporter activity,RAW-Dual [2]; agonist: LPS (TLR4) 0.1 ug/mL,1.11
same,NF-kB SEAP reporter activity,RAW-Dual [2]; [6],1.14
same,NF-kB SEAP reporter activity,RAW-Dual [2]; [7],0.563
same,NF-kB SEAP reporter activity,RAW-Dual [2]; [8],0.468
COc1ccc(CN2CCN(C(c3ccc(F)cc3)c3ccc(F)cc3)CC2)c(OC)c1OC.Cl.Cl,NF-kB SEAP reporter activity,RAW-Dual [1]; [4],1.67
same,NF-kB SEAP reporter activity,RAW-Dual [1]; [5],1.31
Cc1ccc2c(c1)c1c(n2CCc2ccc(C)nc2)CCN(C)C1.Cl.Cl (library stock concentration (final ~1000-fold dilution): 10 mM),NF-kB SEAP reporter activity,RAW-Dual [2]; agonist: LPS (TLR4) 0.1 ug/mL,0.836
same,NF-kB SEAP reporter activity,RAW-Dual [2]; [6],0.273
same,NF-kB SEAP reporter activity,RAW-Dual [2]; [7],0.811
same,NF-kB SEAP reporter activity,RAW-Dual [2]; [8],0.864
Cc1ccc2c(c1)c1c(n2CCc2ccc(C)nc2)CCN(C)C1.Cl.Cl,NF-kB SEAP reporter activity,RAW-Dual [1]; [4],0.926
same,NF-kB SEAP reporter activity,RAW-Dual [1]; [5],0.973
COc1cc(OC)cc(-c2cc3cnc(N)nc3nc2NC(=O)NC(C)(C)C)c1 (library stock concentration (final ~1000-fold dilution): 10 mM),NF-kB SEAP reporter activity,RAW-Dual [2]; agonist: LPS (TLR4) 0.1 ug/mL,5.36
same,NF-kB SEAP reporter activity,RAW-Dual [2]; [6],1.02
same,NF-kB SEAP reporter activity,RAW-Dual [2]; [7],0.578
same,NF-kB SEAP reporter activity,RAW-Dual [2]; [8],0.747
COc1cc(OC)cc(-c2cc3cnc(N)nc3nc2NC(=O)NC(C)(C)C)c1,NF-kB SEAP reporter activity,RAW-Dual [1]; [4],0.989
same,NF-kB SEAP reporter activity,RAW-Dual [1]; [5],1.1
Nc1ncnc2c1c(-c1cnc3[nH]ccc3c1)nn2C1CCCC1,NF-kB SEAP reporter activity,RAW-Dual [1]; [4],0.979
same,NF-kB SEAP reporter activity,RAW-Dual [1]; [5],0.929
Nc1ncnc2c1c(-c1cnc3[nH]ccc3c1)nn2C1CCCC1 (library stock concentration (final ~1000-fold dilution): 10 mM),NF-kB SEAP reporter activity,RAW-Dual [2]; agonist: LPS (TLR4) 0.1 ug/mL,1.19
same,NF-kB SEAP reporter activity,RAW-Dual [2]; [6],0.991
same,NF-kB SEAP reporter activity,RAW-Dual [2]; [7],0.736
same,NF-kB SEAP reporter activity,RAW-Dual [2]; [8],1.11
COc1ccc(-c2cc3c(C)nc(N)nc3n(C3CCC(OCCO)CC3)c2=O)cn1 (stereo unspecified) (library stock concentration (final ~1000-fold dilution): 10 mM),NF-kB SEAP reporter activity,RAW-Dual [3]; agonist: LPS (TLR4) 0.1 ug/mL,2.24
same,NF-kB SEAP reporter activity,RAW-Dual [3]; [6],2.5
same,NF-kB SEAP reporter activity,RAW-Dual [3]; [7],0.759
same,NF-kB SEAP reporter activity,RAW-Dual [3]; [8],1.28
COc1ccc(-c2cc3c(C)nc(N)nc3n(C3CCC(OCCO)CC3)c2=O)cn1 (stereo unspecified),NF-kB SEAP reporter activity,RAW-Dual [1]; [9],2.29
same,NF-kB SEAP reporter activity,RAW-Dual [1]; [10],1.89
